{"source": "PubChem BioAssay AID1347070", "about": "(National Center for Advancing Translational Sciences (NCATS), 2019)", "note": "The campaign covered roughly 94,000 compounds. About 20 (0.02%) were called active. Inconclusive means that the source gave no clear call. Such entries were picked first, then a sample of the others. The call rests on the fitted dose curve; in most records, active means well fitted activation curve with a large enough effect; inconclusive means small, poorly fitted or top-dose-only effect; inactive means flat fitted curve, though single readings scatter. No potency is given beside an inconclusive call; the fits are too rough."}
{"experiment": "qHTS of alpha-syn Inhibitors: NCGC Sytravon Library Screen; further: potency means the concentration at half of the fitted maximal effect; tags describe the fitted curve by direction and shape; on growth rescue (activation): 0% is about no effect", "conditions": "S. cerevisiae alpha-synuclein toxicity rescue, BacTiter-Glo growth, 24 h; growth rescue (activation): at 46.1 µM (top of the series)", "in_short": "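Growth restoration measured by BacTiter-Glo luminescence after 24 hr at 30 deg C; alpha-synuclein yeast, raffinose-pregrown to mid-log, were added at OD600=0.02 in galactose medium onto pinned compounds.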"}
{"compound": "COc1ccc(C(=O)CC2(O)C(=O)N(CCc3ccccc3)c3ccc(Br)cc32)cc1OC", "note": "(stereo not drawn)", "Potency": "inconclusive [activator, single point]"}
{"compound": "Cc1ccccc1-c1noc(CSc2nc(-c3ccc(F)cc3)cc(=O)[nH]2)n1", "Potency": "inactive"}
{"compound": "O=C(Cn1cc(SCc2ccc(F)cc2)c2ccccc21)N1CCCC1", "Potency": "inconclusive [activator, single point]"}
{"compound": "Cc1oc2cc3oc(=O)c(CC(=O)N4CCCCC4)c(C)c3cc2c1C", "growth rescue (activation)": "inconclusive: 30.5% [activator]"}
{"compound": "O=C(Nc1ccc(C(=O)N2CCCCC2)cc1)c1nsc2ccccc12", "Potency": "inactive"}
{"compound": "CC1CCc2onc(C(=O)N3CCN(c4ccc(F)cc4)CC3)c2C1", "note": "(stereo not drawn)", "Potency": "inactive"}
{"compound": "O=C(NCCCN1CCN(c2ccc(F)cc2)CC1)c1cc2c(Cl)nc3ccccc3c2s1", "Potency": "inactive"}
{"compound": "Cc1cccc(-c2nc(CCNC(=O)c3ccc(Br)o3)cs2)c1", "Potency": "inactive"}
{"compound": "COc1ccc(S(=O)(=O)Nc2ccc(F)c(F)c2)cc1C(=O)N1CCOCC1", "Potency": "inactive"}
{"compound": "CCOc1ccc(CCNC(=O)c2c(C)oc3ncn(CC(C)C)c(=O)c23)cc1", "Potency": "inactive"}
{"compound": "Cc1ccc(OCC(=O)N(Cc2ccc(Cl)cc2)Cc2ccco2)cc1C", "Potency": "inconclusive [activator, single point]"}
{"compound": "Cc1cccc(N2CCN(C(=O)Cn3ncc4c3-c3cc(C)ccc3OC4)CC2C)c1", "note": "(stereo not drawn)", "Potency": "inconclusive [activator, single point]"}
{"compound": "O=C(NCCc1ccc(F)cc1)C(=O)NCC(c1cccs1)S(=O)(=O)c1ccc(Cl)cc1", "note": "(stereo not drawn)", "Potency": "inconclusive [activator, single point]"}
{"compound": "Cc1ccc(CNc2nc3c(c(=O)n(C)c(=O)n3C)n2Cc2ccc(Cl)cc2)cc1", "Potency": "inconclusive [activator, single point]"}
{"compound": "Cc1cccc(N2CCN(C(=O)COCc3cc(-c4ccc5c(c4)OCO5)on3)CC2)c1C", "Potency": "inconclusive [activator, single point]"}
{"compound": "Cc1ccc(CNC(=O)CSCc2nc(-c3ccc(Cl)cc3)oc2C)cc1", "Potency": "inactive"}
{"compound": "O=C(C1CCCO1)N1CCN(C(=O)C23CC4CC(CC(C4)C2)C3)CC1", "note": "(stereo not drawn)", "Potency": "inactive"}
{"compound": "Cc1ccc(CNS(=O)(=O)c2cc(C(=O)Nc3ccc(C(C)C)cc3)ccc2F)cc1", "Potency": "inconclusive [activator, single point]"}
{"compound": "Cc1ccc2ncc(S(=O)(=O)c3ccccc3)c(N3CCCCC3C)c2c1", "note": "(stereo not drawn)", "Potency": "inconclusive [activator, single point]"}
{"compound": "O=C(CSc1ccc(-c2ccccn2)nn1)c1ccccc1", "growth rescue (activation)": "inconclusive: 86.2% [activator]"}
{"compound": "Cc1ccc(C=O)c([B-](F)(F)F)c1", "Potency": "inactive"}
{"compound": "COc1ccc(S(=O)(=O)N(CC(=O)NC(C)c2ccccc2)c2ccc(C)cc2)cc1OC", "note": "(stereo not drawn)", "Potency": "inconclusive [activator, single point]"}
{"compound": "CC(C)c1ccc(Nc2c(-c3ccccn3)nc3ccccn23)cc1", "growth rescue (activation)": "inconclusive: 32.7% [activator]"}
{"compound": "CCc1ccc(C(=O)CC2(O)C(=O)N(CCc3ccccc3)c3ccc(Cl)cc32)cc1", "note": "(stereo not drawn)", "Potency": "inconclusive [activator, single point]"}
{"compound": "CC(=O)Nc1ccc(C=CC(=O)c2ccc([N+](=O)[O-])cc2)cc1", "Potency": "inactive"}
{"compound": "COc1ccc(NC(=S)N(CCN(C)C)C(C)c2ccncc2)cc1Cl", "note": "(stereo not drawn)", "growth rescue (activation)": "inconclusive: 327% [activator]"}
{"compound": "COc1ccc(CCNC(=O)c2ccc3c(c2)N(Cc2ccccc2Cl)C(=O)c2ccccc2S3)cc1OC", "Potency": "inactive"}
{"compound": "O=C(CCc1ccccc1)N1CCc2c([nH]c3ccccc23)C1c1ccc(Cl)cc1", "note": "(stereo not drawn)", "Potency": "inconclusive [activator, partial curve]"}
{"compound": "Cc1ccc(Cl)cc1N1CCN(C(=O)c2ccc(CS(=O)(=O)c3ccc(Br)cc3)o2)CC1", "Potency": "inconclusive [activator, single point]"}
{"compound": "COc1ccc(CCNC(=O)c2cc3c(-c4ccc(OC)c(OC)c4)nn(C)c3s2)cc1OC", "Potency": "inactive"}
{"compound": "Cc1cc(-c2ccc(S(=O)(=O)Nc3cc(Cl)ccc3C)s2)on1", "Potency": "inactive"}
{"compound": "O=C(CSc1nc2c([nH]c3ccccc32)c(=O)n1-c1ccccc1)c1ccc(Cl)cc1", "Potency": "inactive"}
{"compound": "COc1ccc(CNC(=O)CCC2N=C3c4ccccc4N=C(SCc4ccc(F)cc4)N3C2=O)cc1", "note": "(stereo not drawn)", "Potency": "inactive"}
{"compound": "CCOC(=O)c1c(C)[nH]c(C)c1S(=O)(=O)NCC(=O)Nc1cccc(SC)c1", "Potency": "inactive"}
{"compound": "COc1cccc(NC(=O)CSc2nc(C)c(Cc3ccccc3)c(=O)[nH]2)c1", "Potency": "inactive"}
{"compound": "O=C(COc1ccc([N+](=O)[O-])cc1)Nc1nc(-c2ccccn2)cs1", "growth rescue (activation)": "inconclusive: 38.4% [activator]"}
{"compound": "COc1ccccc1N(C)C(=O)c1cc(S(=O)(=O)N2CCc3ccccc32)cn1C", "Potency": "inactive"}
{"compound": "Cc1ccc(-n2nc(CO)c(C(=O)NCc3cccnc3)n2)cc1C", "Potency": "inactive"}
{"compound": "COc1ccc(NC(=O)CSC2=Nc3ccccc3C3=NC(CCC(=O)NC4CCCCC4)C(=O)N23)cc1Cl", "note": "(stereo not drawn)", "Potency": "inactive"}
{"compound": "COc1ccc(C)cc1S(=O)(=O)n1cnc2ccccc21", "growth rescue (activation)": "inconclusive: 35.5% [activator]"}
{"compound": "Cc1ccc(CNC(=O)c2ccc(CSCc3ccccc3Cl)o2)cc1", "Potency": "inconclusive [activator, single point]"}
{"compound": "CC(NC(=O)C1CCN(C(=O)c2ccc(-n3ccc4ccccc43)s2)CC1)c1ccccc1", "note": "(stereo not drawn)", "Potency": "inactive"}
{"compound": "CCc1ccc(S(=O)(=O)c2cnc3ccc(OC)cc3c2N2CCCC(C)C2)cc1", "note": "(stereo not drawn)", "Potency": "inconclusive [activator, single point]"}
{"compound": "COc1cc(/C=C(\\C#N)c2nc3ccccc3[nH]2)ccc1OCc1cccc(C(F)(F)F)c1", "Potency": "inactive"}
{"compound": "CCOc1ccccc1NC(=O)c1ccc(F)c(S(=O)(=O)NCc2ccc3c(c2)OCO3)c1", "Potency": "inconclusive [activator, single point]"}
{"compound": "NS(=O)(=O)c1ccc(NC(=S)NC(=O)c2cccnc2)cc1", "Potency": "inactive"}
{"compound": "COc1ccc(-c2ccc3[nH]c4c(c3c2)CCN2C[C@H]3[C@H](C)ON(C)[C@H]3C[C@@H]42)cc1", "Potency": "inactive"}
{"compound": "O=C(c1nc(-c2ccc(Cl)cc2)n2c1CCCCC2)N1CCN(c2ccccc2)CC1", "Potency": "inconclusive [activator, partial curve]"}
